Reference: paper PMC12136788
Some of the results follow.

T1: UNK ZnF1-6 (called full-length) (human, UniProt Q9C0B0 30-357)
T1 sequence: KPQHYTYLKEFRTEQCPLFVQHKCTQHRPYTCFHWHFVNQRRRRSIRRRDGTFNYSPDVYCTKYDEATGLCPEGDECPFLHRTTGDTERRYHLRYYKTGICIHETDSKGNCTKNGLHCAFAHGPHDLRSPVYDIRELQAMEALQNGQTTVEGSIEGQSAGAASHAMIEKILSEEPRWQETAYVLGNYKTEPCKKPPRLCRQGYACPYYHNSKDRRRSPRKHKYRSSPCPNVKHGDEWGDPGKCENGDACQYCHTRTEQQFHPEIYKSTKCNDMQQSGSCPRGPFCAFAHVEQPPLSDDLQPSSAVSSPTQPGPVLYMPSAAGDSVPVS

B1: chr3:98799561:98799662:-|CDS|ENSG00000057019|msi1|FALSE|unique (ssRNA)
RNA: GGGAGUUCUACAGUCCGACGAUCUUCAGUUGGUCAGCCCUCCACAUCCACUUUCAAGGCUACGGGGAACCAACCUCCCCCACUAGUGGGAACUUACAAUACACUUCUCUCCAGGACUGACAGCUGCUCCUCAGCCCAGGCCCACAACAGAGGAUUGAGCAUCA
B2: chr12:51291590:51292344:-|CDS|ENSG00000110934|control|control|control (ssRNA)
RNA: GGGAGUUCUACAGUCCGACGAUCUUCACCCACCAGCCCUAGGGCCUCCUUGGGGACUGGGACUGCAAGUCCUAGGACCUCCCUAGAGGUCUCUCCUAAUCCAGAACCACCAGAGAAGCCAGUAAGAACUCCUGAGGCCAAAGACAACAGAGGAUUGAGCAUCA
B3: chr17:57839567:57839672:-|3pUTR|ENSG00000181610|unk|FALSE|unique (ssRNA)
RNA: GGGAGUUCUACAGUCCGACGAUCGGGUUGUCACAAAGCUCAGUAUCAUGGUUUGACAGAAGCAGUUAUGUGAACUUUUAUGUUAGGACAUUACUAAAUAAAGAAUUCCCUAGCUGCUUAUAAAGUAAAUUUACUUUGAAUUGUCAACAGAGGAUUGAGCAUCA
B4: chr6:35869508:35869609:-|CDS|ENSG00000096063|unk|total|mutant (ssRNA)
RNA: GGGAGUUCUACAGUCCGACGAUCGACACCAUGGUGUGCCAGUCUUCCUCAACUGCCGGUCAGUCAUUCAGUGAACAACACAUCCGCCAACUUCAAGAAAGCAUUCGGGCAGAGAUACCCUGUGAAGAUGAACAAGAGCAAGAACAACAGAGGAUUGAGCAUCA
B5: ENSG00000181852:stop:overlap|stop_codon|ENSG00000181852|stop_codon|NA|stop_codon (ssRNA)
RNA: GGGAGUUCUACAGUCCGACGAUCGUGUCAACCCCAACCUUCAGAACCUGGAGGAGACAAUUGAAUACAACGAGAUCCUAGAGUAGCUUACAACCCAGAGAAGAGGAGGCAGAGUGCAAGUCCAGGAAAGUGAUCUCUAAAAUGCAACAGAGGAUUGAGCAUCA
B6: chr4:48498090:48498191:-|3pUTR|ENSG00000075539|msi1|total|mutant (ssRNA)
RNA: GGGAGUUCUACAGUCCGACGAUCAGGAAGCCUGAAGACUGACUACCAAAACAUGCAAUAUACUUAUUCACUGUCUAAGUCUGCCGUAUAACAUGAACUGGAGUCUCUAUCCUUUUCUAAAAUCGCAUUUUGUAAGAAAAGAAACAACAGAGGAUUGAGCAUCA
B7: chr12:46358264:46358384:-|3pUTR|ENSG00000134294|msi1|FALSE|unique (ssRNA)
RNA: GGGAGUUCUACAGUCCGACGAUCAAUGUGAUCUAGUGUAAUGGAAGACCUUUGAGAACCUGGGUGUAUUAACUUUGUGUAUAUAGUGUAAAUAUCCCCACUGUACUGUUAGAGGCCAACAAUUCUAGUAUGGCUUGUUGGCAACAACAGAGGAUUGAGCAUCA
B8: chr17:44319658:44319728:-|3pUTR|ENSG00000013306|msi1_unk|total|mutant (ssRNA)
RNA: GGGAGUUCUACAGUCCGACGAUCUCCCUGUGUUUGCUGCCGCUGGGCAUGUCUCCAGGAACCAAGAAGCCCUCAGCCUGGUGCCGUCUCCCUGACCCUUGUUAAUUCCUUAAGUCUAAAGAUGAUGAACUUCUGCCUGGUGCCCAACAGAGGAUUGAGCAUCA
B9: ENSG00000124766:be:win_1151|CDS|ENSG00000124766|bound_else_gene|NA|bound_elsewhere_windowed (ssRNA)
RNA: GGGAGUUCUACAGUCCGACGAUCCCCACUCCUCCUCUUCCUCCUCCUCGGGCUCCUCGUCCUCCGACGACGAGUUCGAAGACGACCUGCUCGACCUGAACCCCAGCUCAAACUUUGAGAGCAUGUCCCUGGGCAGCUUCAGUUCAACAGAGGAUUGAGCAUCA
B10: chr5:103029089:103029184:+|3pUTR|ENSG00000145730|msi1_unk|FALSE|overlapping (ssRNA)
RNA: GGGAGUUCUACAGUCCGACGAUCAACCAAGCUUUGAUUUAGAUUGAGUAAGAUUUACCCAGAAUGUCAGAUUCCUUUCCCUUUAGCACGUUUAAAGUUCUGUGUAUUUAAUUGUAAACUGUACUAGUCUGUGUGGGACUGUACCAACAGAGGAUUGAGCAUCA
B11: chr13:108210595:108210700:-|CDS|ENSG00000174405|unk|FALSE|unique (ssRNA)
RNA: GGGAGUUCUACAGUCCGACGAUCUCAGCACUUGAGCAAAAGUGGCUUAUACGGAUGAUCAUAAAGGAUUUAAAGCUUGGUGUUAGUCAGCAAACUAUCUUUUCUGUUUUUCAUAAUGAUGCUGCUGAGUUGCAUAAUGUCACUCAACAGAGGAUUGAGCAUCA
B12: ENSG00000070961:be:win_1201|CDS|ENSG00000070961|bound_else_gene|NA|bound_elsewhere_windowed (ssRNA)
RNA: GGGAGUUCUACAGUCCGACGAUCAAAAGACCAUGGCUUGCUGAGUGCACACCAAUUUAUAUACAAUACUUUGUGAAGUUCUUCAUUAUUGGAGUUACAGUUUUAGUGGUCGCAGUGCCAGAAGGUCUUCCACUUGCAGUCACGCAACAGAGGAUUGAGCAUCA
B13: ENSG00000168556:stop:overlap|stop_codon|ENSG00000168556|stop_codon|NA|stop_codon (ssRNA)
RNA: GGGAGUUCUACAGUCCGACGAUCAUAAUGAGAAAACAAUGGACAAAAGUACUGAAAAGACAAAAAAGGAUAGAAGAUCGAGGUAGUAAAGGCCAUCCACAUUUUAAAGGGUUAUUUGUCUUUUAUAUAAUUCGUUUGCUUUCACAACAGAGGAUUGAGCAUCA
B14: chr16:46660370:46660459:-|3pUTR|ENSG00000069329|msi1_unk|FALSE|overlapping (ssRNA)
RNA: GGGAGUUCUACAGUCCGACGAUCAAAAGGAAAUAGCUCACCAUACUCCUUUCCAUGUACAUCCAGUGAGGGUUUUAUUACGCUAGGUUUCCCUUCCAUAGAUUGUGCCUUUCAGAAAUGCUGAGGUAGGUUUCCCAUUUCUUACAACAGAGGAUUGAGCAUCA

target: T1, UNK ZnF1-6 (called full-length); assay: nsRBNS (natural sequence RNA bind-n-seq); RBNS binding buffer (assumed for nsRBNS): 25 mM Tris pH 7.5, 150 mM KCl, 3 mM MgCl2, 0.01% Triton X-100, 500 ug/ml BSA, 20 U/ml SUPERase-In, 4 C; UNK is unkempt and MSI1 is Musashi-1; names of the RNAs are library labels; protein concentration not given here; high values mean tight binding

Binder	binding signal [enrichment R]
B1	0.692
B2	0.656
B3	0.74
B4	0.477
B5	0.976
B6	0.315
B7	0.395
B8	1.51
B9	0.877
B10	1.16
B11	0.311
B12	0.727
B13	0.601
B14	0.4
